# About 200 (0.47%) of roughly 43,000 compounds were called active. Roughly 12% stayed inconclusive and do not appear here. Calls come from the whole dose curve; as a rule, active = well fitted cell-killing curve with a large enough effect; inconclusive = small, poorly fitted or top-dose-only effect, or effect the other way; inactive = flat fitted curve, though single readings scatter. Some of the results follow.
# Assay: Cell viability qHTS assay in S16 Pmp22-F2sN cells; note: nearly all actives have a fitted effect of over 65% in size
# Settings: S16 Pmp22-F2sN Schwann cells (luciferase reporters placed in the Pmp22 gene) viability, CellTiter-Glo, 24 h; series mostly up to 57.5 µM; activity change, negative = cytotoxicity: at the top concentration
# Summary of the method: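 Rat S16 Schwann reporter line, 24 h treatment with library compounds delivered at 23 nL per well. Cell viability by CellTiter-Glo luminescence.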
# % is set by controls: 0 for no effect and ±100 for the full control effect.
row,Compound,"activity change, negative = cytotoxicity"
1,CCCOc1ccc(C2c3c(oc4ccccc4c3=O)C(=O)N2c2ccc(C)cn2)cc1OCC (stereo not drawn),inactive: -1.21%
2,Cc1ccc(C)c(NC(=O)Nc2nnc(N(CC(C)C)CC(C)C)s2)c1,inactive: -3.49%
3,O=C(Cn1cc(SCc2cccc(F)c2)c2ccccc21)N1CCCC1,inactive: -4.43%
4,Cc1cc2oc(C(=O)Nc3sc4c(c3C(=O)NCc3ccco3)CCC4)cc(=O)c2cc1C,inactive: 0.64%
5,Cc1ccc2c(CNCc3cccc(Cl)c3)c(C(=O)O)n(Cc3ccc(F)cc3Cl)c2c1,inactive: -1.69%
6,COc1ccc2oc(=O)c(-c3nc(-c4cc(OC)c(OC)c(OC)c4)no3)cc2c1,inactive: 0.724%
7,O=C(CNS(=O)(=O)c1cccs1)N1CCN(c2ccccc2Cl)CC1,inactive: 6.28%
8,COc1cc(OC)c(NS(=O)(=O)c2cc3c(cc2C)NC(=O)CO3)cc1Cl,inactive: 1.27%
9,CC(=O)c1ccc(N2CCN(C(=O)C3CCN(S(=O)(=O)c4ccc(Br)s4)CC3)CC2)cc1,inactive: -4.49%
10,COCCCNC(=O)c1cn(CC(C)C)c(=O)c2c1c1ccccc1n2C,inactive: -12.9%
11,CCN(Cc1ccccc1)C(=O)CCS(=O)(=O)c1cc2c(cc1Cl)NC(=O)CO2,inactive: 9.25%
12,Cc1ccc(NC(=O)c2nc(S(C)(=O)=O)ncc2N(Cc2ccco2)Cc2ccccc2F)c(C)c1,inactive: -1.93%
13,CCCN(Cc1cccs1)C(=O)Nc1cc(C)ccc1OC,inactive: 12.6%
14,COc1ccccc1N1CCN(c2nc3ccc(C(=O)c4ccccc4)cc3n3c(C)nnc23)CC1,inactive: -3.63%
15,CCc1nn(CC(=O)Nc2ccc(C)c(F)c2)c(=O)c2cc3cc(C)ccc3n12,inactive: -3.27%
16,COc1ccc(OC)c(CNC(=O)C2CCN(S(=O)(=O)N3CCCCC3)CC2)c1,inactive: 9.94%
17,CCCCN1CC(c2nc3ccccc3n2CCCCOc2ccccc2C)CC1=O (stereo not drawn),inactive: -16.6%
18,CC(=O)OC1=CN(Cc2ccccc2)S(=O)(=O)c2ccccc21,inactive: -3.57%
19,COc1ccc(OC)c(S(=O)(=O)NCCc2sc(-c3cccnc3)nc2C)c1,inactive: 13.7%
20,CCOc1ccc(-c2nnc(SCC(=O)Nc3ccccc3C(F)(F)F)o2)cc1,inactive: 10.9%
21,O=C(COc1ccc(F)cc1)Nc1ccc2nc(SCC(=O)N3CCCC3)sc2c1,inactive: 4.67%
22,COc1ccccc1N1CCN(C2C(=O)c3ccccc3N2C(C)=O)CC1 (stereo not drawn),inactive: 0.898%
23,Cc1ccc(-c2cn3c(n2)sc2cc(C(=O)NCCC4=CCCCC4)ccc23)c(C)c1,inactive: 4.24%
24,CCOc1ccc(S(=O)(=O)NCC(c2ccc(N(C)C)cc2)N2CCCC2)cc1 (stereo not drawn),inactive: 8.79%

row,Compound,"activity change, negative = cytotoxicity"
1,Cc1nc2c(c(C)c1CCC(=O)N1CCN(c3ccccc3)CC1)c(=O)n(C)c(=O)n2C,inactive: 1.7%
2,COc1ccc(C2C=C(c3ccccc3)Nc3nc(NS(=O)(=O)c4ccccc4)nn32)cc1 (stereo not drawn),inactive: 1.91%
3,Cc1cc(C)c(S(=O)(=O)Nc2ccc3oc4c(c3c2)CCCC4)cc1C,inactive: -14.6%
4,CC(CNC(=O)CCn1c(=O)c2cccn2c2ccc(F)cc21)c1ccccc1 (stereo not drawn),inactive: -0.765%
5,CCOC(=O)c1ccccc1NC(=O)CSc1c(C)cnc2c1c(=O)n(C)c(=O)n2C,inactive: 1.46%
6,Cc1ccc(C)c(Cn2c(=O)n(-c3ccc(Cl)cc3)c(=O)c3c4c(sc32)CCC4)c1,inactive: -1.65%
7,COc1ccc(CCNC(=O)C2CC(=O)N(CCc3ccccc3)C2)cc1OC (stereo not drawn),inactive: 4.29%
8,COc1cccc(NC(=O)c2c(-c3ccc(C)cc3)nnc3ccccc23)c1,inactive: -3.37%
9,O=C(Nc1cccc(Cl)c1Cl)c1cc(S(=O)(=O)N2CCCCC2)ccc1F,inactive: -4.41%
10,Cc1cc(F)ccc1NC(=O)Cn1cc(S(=O)(=O)NC(C)C)c(S(=O)(=O)NC(C)C)c1,inactive: -0.0025%
11,CCCCSc1nc2sc3c(c2c(=O)n1-c1ccccc1C)CC(C)(C)OC3,inactive: 16.5%
12,Cc1ccc2onc(CC(=O)N3CCN(c4cccc(Cl)c4)CC3)c2c1,inactive: -9.56%
13,COc1ccc(NC(=O)Cn2c(=O)oc3cc(S(=O)(=O)N4CCCCCC4)ccc32)cc1OC,inactive: -6.47%
14,COc1cccc(C(=O)Nc2c(C(=O)Nc3ccc(F)cc3)oc3ccccc23)c1OC,inactive: 17.8%
15,CCOc1ccc(C(=O)Nc2nnc(SCc3cc(=O)n4ccccc4n3)s2)cc1,inactive: -2.05%
16,Cc1ccc(NC(=O)c2cnc(N3CCCC3)nc2C)cc1F,inactive: -3.18%
17,CCN(Cc1ccccc1)S(=O)(=O)c1cc(Br)cc2c1N(C(=O)C1CC1)CC2,inactive: 8.6%
18,CCOc1ccc(-n2cc(-c3ccccc3)c3c(Nc4cccc(F)c4)ncnc32)cc1,inactive: 24.2%
19,COc1ccc(NC(=O)CNC(=O)Cn2c(C)cc3ccccc3c2=O)c(OC)c1,inactive: 22.2%
20,O=C(c1ccccc1)N1CCN(CCc2ccccn2)CC1,inactive: -0.0815%
21,COc1ccc(N2CCN(Cc3nc4c(c(=O)[nH]c(=O)n4C)n3Cc3ccccc3C)CC2)cc1,inactive: 6.43%
22,Cc1csc2nc(COC(=O)CNC(=O)c3ccccc3)cc(=O)n12,inactive: 8.18%
23,COC(=O)c1ccc(NC(=O)C(=O)NCCc2csc(-c3ccc(F)cc3)n2)cc1,inactive: 0.306%
24,Cc1ccc(O)c(NC(=O)C2=CC(c3ccco3)=NS(=O)(=O)N2C)c1,inactive: -0.753%

# From PubChem BioAssay AID1508642 (National Center for Advancing Translational Sciences (NCATS), 2021)
